# From patent publication US20110201649A1, “AGRICULTURAL COMPOSITION” (SUMITOMO CHEMICAL COMPANY, LIMITED, priority 2008, published 2011)
# System: Japanese Radish Alternaria Leaf Spot (Alternaria brassicicola)
# Assay: Test of effect in preventing infection by Japanese radish Alternaria leaf spot
# Assay type: in vivo
# Details: Japanese radish (Wase-Shijunichi), foliar application 500 ppm, spore suspension sprayed, 1 day humid at 24° C. then 3 days in greenhouse
# Procedure: Test of Effect in Preventing Infection by Japanese Radish Alternaria Leaf Spot (Alternaria brassicicola)
# After inoculation, the plant was first allowed to stand under humid condition at 24° C. for 1 day, further, allowed to stand in a greenhouse for 3 days, then, the affected area was checked.
compound,measurement,value
Nc1ncccc1-c1cn(Cc2ccc(OCc3ccccc3)cc2)nn1 [compound 2751],lesion area on the treated plant as share of the lesion area on a non-treated plant,≤ 30%
